# Measurements: PubChem BioAssay AID624417 (National Center for Advancing Translational Sciences (NCATS), 2012)
# About 6,400 (1.6%) of roughly 410,000 compounds were called active. Inconclusive results, whose numbers are uncertain, are shown with a selection of clear calls. Calls follow the shape of the dose curve; as a rule, active = well fitted inhibition curve with a large enough effect; inconclusive = small, poorly fitted or top-dose-only effect; inactive = no such curve, though single readings can be large or run the other way. Potencies of inconclusive entries are left out as doubtful fits.
# Biological target: Glucagon-like peptide 1 receptor (Homo sapiens) (UniProt P43220)
# Assay: qHTS of GLP-1 Receptor Inverse Agonists (Inhibition Mode); also: nearly all actives have a fitted effect of over 55% in size
# Conditions: HEK293 GLP-1R CRE-luciferase, luminescence, 24 h, GLP-1R form is constitutively active; activity change, negative = inhibition: at 38.3 µM (top of the series) unless noted
# Method in brief: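 Seeding at 200 cells/uL, 12 h culture, 24 hr compound treatment, then luciferase reagent and a luminescence read; cells are HEK293 stably expressing a constitutively active GLP-1R plus cAMP-responsive luciferase.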
# % is scaled to controls: 0 for no effect and ±100 for the full control effect; potency is read from the fitted curve at half-maximal effect; tags tell the direction and shape of the fitted curve.
# Chain of UniProt P43220 (P43220 whole entry, looked up): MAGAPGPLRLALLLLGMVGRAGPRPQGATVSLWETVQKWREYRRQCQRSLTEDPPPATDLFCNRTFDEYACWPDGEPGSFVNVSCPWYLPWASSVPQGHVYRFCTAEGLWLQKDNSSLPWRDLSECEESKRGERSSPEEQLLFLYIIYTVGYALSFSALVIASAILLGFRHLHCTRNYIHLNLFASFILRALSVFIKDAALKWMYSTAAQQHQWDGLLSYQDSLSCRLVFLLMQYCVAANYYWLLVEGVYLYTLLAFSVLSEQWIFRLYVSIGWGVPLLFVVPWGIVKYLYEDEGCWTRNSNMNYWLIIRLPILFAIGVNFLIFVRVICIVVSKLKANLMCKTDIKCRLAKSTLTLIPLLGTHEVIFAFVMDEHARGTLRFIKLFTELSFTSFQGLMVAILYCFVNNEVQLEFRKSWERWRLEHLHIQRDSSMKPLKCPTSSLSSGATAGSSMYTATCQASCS
SMILES,Potency,"activity change, negative = inhibition"
Cc1cccc(N(C(=O)CCC(=O)Nc2cc(C)on2)C(C(=O)NC2CCCC2)c2ccccc2)c1 (stereo not given),inactive,
CCCC(=O)NC(c1ccccc1)c1ccc2cccnc2c1O (stereo not given),"inconclusive [inhibitor, partial curve, poor fit]",
COc1cccc(/C=N/NC(=O)C(=O)N2CCCCCC2)c1O,"inconclusive [inhibitor, single point]",
CN(C)C(=O)c1cccc(COc2ccc(N3C(N)=NC(N)=NC3(C)C)cc2Cl)c1,active: 2.24 µM,
CC1(C)Nc2ccc(O)cc2-c2c1ssc2=S,inactive,
CCOc1ccc(-c2oc3ccccc3c(=O)c2O)cc1OCC,inactive,
CC(O)(c1cccc(F)c1)c1nc(-c2ccccc2)cs1 (stereo not given),"inconclusive [inhibitor, single point]",
COc1ccc(Cl)cc1NC(=O)CN(C)C(=O)c1cc2ccccc2cc1O,"inconclusive [inhibitor, partial curve, poor fit]",
NC(=O)COC(=O)c1ccc(Cl)c(S(=O)(=O)N(Cc2ccccc2)c2ccc(Cl)cc2)c1,"inconclusive [inhibitor, single point]",
COc1cc2c(cc1OC)-c1cc(NC3CCCCCC3)nc(=O)n1CC2,inactive,
C[C@@H]1Cc2c(O)c(O)cc(O)c2C(=O)O1,inactive,
COc1ccc(OCCOC(=O)CN2C(=O)NC3(CCCC3)C2=O)cc1,inactive,
COc1cccc(CN(C)S(=O)(=O)c2cccs2)c1,"inconclusive [inhibitor, single point]",
COc1ccc(S(=O)(=O)N2CCCCCC2)cc1C(=O)N(C)CC(=O)Nc1ccc(Cl)c(Cl)c1,active: 10 µM,
C=CCNC(=O)C1CC(=O)N(c2ccc(OCC(=O)Nc3ccc(OC)cc3)cc2)C1 (stereo not given),"inconclusive [inhibitor, single point]",
CC(O)(c1ccc(F)c(F)c1)c1nc(-c2cc(F)cc(F)c2)cs1 (stereo not given),"inconclusive [inhibitor, single point]",
CC(C)=N/N=C1/NC(=O)C(Cc2ccccc2)S1 (stereo not given),"inconclusive [inhibitor, single point]",
Cc1ccc2nc(N/C(=N/S(=O)(=O)c3ccc(F)cc3)c3ccccc3)sc2c1,"inconclusive [inhibitor, partial curve, poor fit]",
CCOc1ccc(S(=O)(=O)Nc2ccccn2)c2ccccc12,inactive,
COc1ccc(C(CNC(=O)c2ccc(S(=O)(=O)N3CC(C)CC(C)C3)cc2)N(C)C)cc1 (stereo not given),"inconclusive [inhibitor, partial curve, poor fit]",
CCN(c1ccc(NC(=O)CSCc2c(C)noc2C)cc1)C(C)C,"inconclusive [inhibitor, single point]",
O=C(Cn1ncc2c1-c1ccccc1OC2)N1CCc2ccccc21,inactive,
Cc1ccc2c(CN3CCCCC3C)cc(=O)oc2c1 (stereo not given),"inconclusive [inhibitor, single point]",
O=C(NCc1ccc2c(c1)CCN2C(=O)c1ccc(F)cc1)c1ccc(Br)o1,inactive,

SMILES,Potency,"activity change, negative = inhibition"
COc1ccc2[nH]c(=O)c(COC(=O)c3ccco3)cc2c1,inactive,
O=C(CS(=O)(=O)Cc1ccccc1)Nc1ccc(S(=O)(=O)N2CCCCCC2)cc1,"inconclusive [inhibitor, partial curve, poor fit]",
O=C(NCCN1C(=O)S/C(=C\c2ccc(OC(F)F)cc2)C1=O)[C@@H]1CCCN1C(=O)c1cccs1,"inconclusive [inhibitor, partial curve]",
NC(=S)NN=Cc1c[nH]c2nccnc12,inactive,
Cc1cc(C)cc(N2CC(c3nc(-c4ccccc4C)no3)CC2=O)c1 (stereo not given),"inconclusive [inhibitor, partial curve, poor fit]",
C=CCNC(=S)NNc1nc(Nc2ccccc2)nc(N2CCCCC2)n1,"inconclusive [inhibitor, full curve, poor fit]",
CC(=O)c1cccc(NC(=O)CC2S/C(=N/N=C3CCCCCC3)NC2=O)c1 (stereo not given),inactive,
O=[N+]([O-])c1cccc(/C=N\N=C2c3ccccc3-c3ccccc32)c1O,inactive,
S=C(NCCN1CCCCC1)Nc1ccc(Br)cc1,"inconclusive [inhibitor, single point]",
CCN(CC)S(=O)(=O)c1ccc(NC(=S)NC(=O)C2CCC2)cc1,"inconclusive [inhibitor, single point]",
CCOC(=O)c1ccc(NC(=O)CN(c2ccc(C)cc2)S(=O)(=O)c2c(C)noc2C)cc1,"inconclusive [inhibitor, partial curve, poor fit]",
Cc1[nH]n(-c2ccccc2)c(=O)c1/C=C1\C=NN=C1c1ccccc1,inactive,
Cc1nc2c(C(=O)NCCc3ccc(Cl)cc3)cnn2c(C)c1Cc1c(F)cccc1Cl,inactive,
CCN(c1ccc(C)cc1C)S(=O)(=O)c1nnc(NC(=O)C(C)C)s1,"inconclusive [inhibitor, partial curve, poor fit]",
CCCCCCCCNS(=O)(=O)CCNCCCC,"inconclusive [inhibitor, single point]",
OC(Cn1cnnc1)c1ccccc1 (stereo not given),inactive,
CCCCOc1ccc(CN2CCSCC2)cc1,"inconclusive [inhibitor, partial curve, poor fit]",
CCOC(=O)c1ccc(CN(Cc2ccccc2)S(=O)(=O)c2ccc(C)cc2)cc1,"inconclusive [inhibitor, partial curve]",
COc1ccc(CCC(=O)NC2CC(=O)N(c3ccc(C)cc3)C2)cc1 (stereo not given),inactive,
Cc1ccc(OCCCN2CCC(C(O)(c3ccccc3)c3ccccc3)CC2)cc1,"inconclusive [inhibitor, single point]",
CCCCOC(=O)c1ccc(Nc2ncnc3[nH]ncc23)cc1,inactive,
C#CCOCCOCCOCCNc1nc(N2CCN(C(=O)Cn3cc(CCCCN)nn3)CC2)nc(N2CCN(C(=O)[C@H]([C@@H](C)CC)n3cc(CCCN=C(N)N)nn3)CC2)n1,inactive,
COC(=O)c1ccccc1Sc1ncnc2onc(C)c12,"inconclusive [inhibitor, partial curve, poor fit]",
COc1cc(Br)c(CNc2cc(C)ccc2C)cc1OC,"inconclusive [inhibitor, partial curve, poor fit]",

SMILES,Potency,"activity change, negative = inhibition"
CC(c1ccco1)N(C(=O)c1cc(Cl)cc(Cl)c1)c1ccccn1 (stereo not given),"inconclusive [inhibitor, partial curve, poor fit]",
Cc1cccc(C(=O)N2CCN=C2SCc2ccc([N+](=O)[O-])cc2)c1,"inconclusive [inhibitor, full curve, poor fit]",
C=CCOc1c(Cl)cc(CNc2nccs2)cc1OC,,inactive: 1.53% [at 0.307 µM]
COc1ccc2oc(=O)cc(CN3CCN(c4ccc(F)cc4)CC3)c2c1,inactive,
COc1cccc(NC(=O)C2CCN(S(=O)(=O)c3ccc4c(c3)NC(=O)C(C)S4)CC2)c1 (stereo not given),"inconclusive [inhibitor, single point]",
CC(=O)N1CCOc2ccc(S(=O)(=O)N3CCC(C(=O)NCc4ccc(F)cc4)CC3)cc21,"inconclusive [inhibitor, single point]",
Fc1ccc(-c2cc(C(F)(F)F)nc(NCc3cccs3)n2)cc1,"inconclusive [inhibitor, partial curve, poor fit]",
CCN(CC)S(=O)(=O)c1ccc(OC)c(NC(=O)C(C)Oc2ccc3c(C)cc(=O)oc3c2)c1 (stereo not given),inactive,
CC(C)CNC(=S)NC1CC2CCC(C1)N2Cc1ccccc1 (stereo not given),"inconclusive [inhibitor, single point]",
CC(Nc1ccc(-c2nc(-c3ccncc3)no2)cc1[N+](=O)[O-])c1ccccc1 (stereo not given),"inconclusive [inhibitor, full curve, poor fit]",
CCCCN(CCCC)C(=O)CN(C)S(=O)(=O)c1ccc2c(c1)c(=O)n(C)c(=O)n2C,inactive,
Nc1nc(-c2ccc3c(c2)CCC(=O)N3)cs1,inactive,
O=C(Nc1ccccc1)Nc1ncc([N+](=O)[O-])s1,"inconclusive [inhibitor, partial curve, poor fit]",
O=C(NCc1ccccc1Br)c1ccc2nc(N3CCCCC3)sc2c1,inactive,
Cc1ccc(C)c(OCCCCCn2ccnc2)c1,"inconclusive [inhibitor, single point]",
CN1c2ccccc2C(O)=C(C(=S)Nc2ccc(F)c(Cl)c2)S1(=O)=O,active: 10 µM,
COc1cccc(NC(=S)N(CCCN2CCC(C)CC2)Cc2cccs2)c1,"inconclusive [inhibitor, partial curve, poor fit]",
O=C(OCC(=O)N(CCc1ccccc1)Cc1ccccc1)c1cccc(O)c1,"inconclusive [inhibitor, partial curve, poor fit]",
O=C(C1CCC1)N1CCc2cc(S(=O)(=O)NCCN3CCN(c4ccccc4F)CC3)ccc21,"inconclusive [inhibitor, single point]",
CCOC(=O)C1=C(C)N(Cc2ccccc2)C(=O)NC1c1ccc(OC)cc1 (stereo not given),"inconclusive [inhibitor, single point]",
CC(=O)/C(=C/N(C)C)C(=O)Nc1ccc(Cl)cc1Cl,"inconclusive [inhibitor, single point]",
Cc1cccc(-c2ccc3c(c2)C2CC3CCN2Cc2ccc3c(c2)OCO3)c1 (stereo not given),inactive,
